# Test results reported in US7592316B2, “Peptides as NS3-serine protease inhibitors of hepatitis C virus” (Schering Corporation, priority 2000, dated 2009).
# *1 amine or outer side, *2 acyl side, *3 side chain or, on linkers, in order; H or OH if unused. Where a SMILES comes first, the peptide text is derived from it. [ ]: non-standard residue; d: D form. The star is where a group is joined. ξ: configuration not given here. Benzoyl(2-COOH-4,5-Cl2) = O=C(O)c1cc(Cl)c(Cl)cc1C(=O)*; Pro(trans-4-Ph) = O=C(O)[C@@H]1C[C@@H](c2ccccc2)CN1; Pro(4,4-S(CH2)3S) = O=C(O)[C@@H]1CC2(CN1)SCCCS2; ξPro(4R-SBzl) = O=C(O)C1C[C@@H](SCc2ccccc2)CN1; ξPro(4,4-S(CH2)3S) = O=C(O)C1CC2(CN1)SCCCS2; Neopentyloxycarbonyl = CC(C)(C)COC(=O)*; Pro(4,4-F2) = O=C(O)[C@@H]1CC(F)(F)CN1; Isobutyloxycarbonyl = CC(C)COC(=O)*; X8 = O=C(C(=O)[*:2])C(CC1CC1)N[*:1]; X4 = CCCCC(N[*:1])C(=O)C(=O)[*:2]; X2 = CCCC(N[*:1])C(=O)C(=O)[*:2]; Chg = N[CH](C(=O)O)C1CCCCC1; Phg = N[CH](C(=O)O)c1ccccc1; Tle = CC(C)(C)[C@H](N)C(=O)O; X10 = CC(C)(C(=O)*)c1ccccc1; X13 = c1ccc(-c2ccccc2C*)cc1; X9 = C[C@H](C(=O)*)c1ccccc1; X22 = CC(C)(C)c1ccc(C*)cc1; ξChg = NC(C(=O)O)C1CCCCC1; ξPhg = NC(C(=O)O)c1ccccc1; Morpholide = C1CN(*)CCO1; Pyrrolidide = C1CCN(*)C1; NHCH2CH2OMe = COCCN*; X7 = O=C(OCC1CC1)*; OtBu = CC(C)(C)O*; X37 = CC(C)N(C)*; NHiPr = CC(C)N*
# Molecular target: HCV NS3/NS4A protease (strain 1a) (Hepatitis C virus genotype 1a, UniProt P27958)
# Assay: biochemical
# Conditions: HCV protease continuous assay results, Table 1; read-out: Ki* Range
row,SMILES,Ki
1,"CCCC(NC(=O)[C@@H]1CC2(CN1C(=O)[C@@H](NC(=O)OCC(C)C)[C@@H](C)OCc1ccc(C(C)(C)C)cc1)SCCCS2)C(=O)C(=O)NCC(=O)N[C@H](C(=O)N(C)C)c1ccccc1 (some centres unmarked) [Example 144] (Isobutyloxycarbonyl-T(X22)[Pro(4,4-S(CH2)3S)][X2]G[Phg]-NMe2)",101 to 1000 nM
2,"CCCC(NC(=O)[C@@H]1CC2(CN1C(=O)[C@@H](NC(=O)OCC(C)C)[C@@H](C)OCc1ccccc1-c1ccccc1)SCCCS2)C(=O)C(=O)NCC(=O)N[C@H](C(=O)N(C)C)c1ccccc1 (some centres unmarked) [Example 145] (Isobutyloxycarbonyl-T(X13)[Pro(4,4-S(CH2)3S)][X2]G[Phg]-NMe2)",> 1000 nM
3,"CC(C)COC(=O)N[C@H](C(=O)N1CC2(CC1C(=O)NC(CC1CC1)C(=O)C(=O)NCC(=O)NC(C(=O)OC(C)(C)C)c1ccccc1)SCCCS2)C1CCCCC1 (some centres unmarked) [Example 146] (Isobutyloxycarbonyl-[Chg][ξPro(4,4-S(CH2)3S)][X8]G[ξPhg]-OtBu)",1 to 100 nM
4,"CC(C)COC(=O)N[C@H](C(=O)N1CC2(CC1C(=O)NC(CC1CC1)C(=O)C(=O)NCC(=O)NC(C(=O)O)c1ccccc1)SCCCS2)C1CCCCC1 (some centres unmarked) [Example 147] (Isobutyloxycarbonyl-[Chg][ξPro(4,4-S(CH2)3S)][X8]G[ξPhg]-OH)",1 to 100 nM
5,"CC(C)COC(=O)N[C@H](C(=O)N1CC2(CC1C(=O)NC(CC1CC1)C(=O)C(=O)NCC(=O)NC(C(=O)N(C)C)c1ccccc1)SCCCS2)C1CCCCC1 (some centres unmarked) [Example 148] (Isobutyloxycarbonyl-[Chg][ξPro(4,4-S(CH2)3S)][X8]G[ξPhg]-NMe2)",101 to 1000 nM
6,"CCCC(NC(=O)C1CC2(CN1C(=O)C(NC(=O)OCC(C)C)C1CCCCC1)SCCCS2)C(=O)C(=O)NCC(=O)NC(C(=O)NC(C)C)c1ccccc1 (centres unmarked) [Example 149] (Isobutyloxycarbonyl-[Chg][ξPro(4,4-S(CH2)3S)][X2]G[Phg]-NHiPr; configuration not given here)",1 to 100 nM
7,"CCCC(NC(=O)C1CC2(CN1C(=O)C(NC(=O)OCC(C)C)C1CCCCC1)SCCCS2)C(=O)C(=O)NCC(=O)NC(C(=O)N(C)C(C)C)c1ccccc1 (centres unmarked) [Example 150] (Isobutyloxycarbonyl-[Chg][ξPro(4,4-S(CH2)3S)][X2]G[Phg]-X37; configuration not given here)",1 to 100 nM
8,"CCCC(NC(=O)C1CC2(CN1C(=O)C(NC(=O)OCC(C)C)C1CCCCC1)SCCCS2)C(=O)C(=O)NCC(=O)NC(C(=O)NCCOC)c1ccccc1 (centres unmarked) [Example 151] (Isobutyloxycarbonyl-[Chg][ξPro(4,4-S(CH2)3S)][X2]G[Phg]-NHCH2CH2OMe; configuration not given here)",1 to 100 nM
9,"CCCC(NC(=O)C1CC2(CN1C(=O)C(NC(=O)OCC(C)C)C1CCCCC1)SCCCS2)C(=O)C(=O)NCC(=O)NC(C(=O)N1CCCC1)c1ccccc1 (centres unmarked) [Example 153] (Isobutyloxycarbonyl-[Chg][ξPro(4,4-S(CH2)3S)][X2]G[Phg]-Pyrrolidide; configuration not given here)",1 to 100 nM
10,"CCCC(NC(=O)C1CC2(CN1C(=O)C(NC(=O)OCC(C)C)C1CCCCC1)SCCCS2)C(=O)C(=O)NCC(=O)NC(C(=O)N1CCOCC1)c1ccccc1 (centres unmarked) [Example 154] (Isobutyloxycarbonyl-[Chg][ξPro(4,4-S(CH2)3S)][X2]G[Phg]-Morpholide; configuration not given here)",1 to 100 nM
11,CCCC(NC(=O)C1C[C@@H](SC(C)(C)C)CN1C(=O)C(NC(=O)OCC(C)C)C1CCCCC1)C(=O)C(=O)NCC(=O)NC(C(=O)OC(C)(C)C)c1ccccc1 (some centres unmarked) [Example 155],101 to 1000 nM
12,CCCC(NC(=O)C1C[C@@H](SC(C)(C)C)CN1C(=O)C(NC(=O)OCC(C)C)C1CCCCC1)C(=O)C(=O)NCC(=O)NC(C(=O)NC)c1ccccc1 (some centres unmarked) [Example 156],101 to 1000 nM
13,CCCC(NC(=O)C1C[C@@H](SC(C)(C)C)CN1C(=O)C(NC(=O)OCC(C)C)C1CCCCC1)C(=O)C(=O)NCC(=O)NC(C(=O)N(C)C)c1ccccc1 (some centres unmarked) [Example 157],101 to 1000 nM
14,CCCC(NC(=O)C1C[C@@H](SCc2ccccc2)CN1C(=O)C(NC(=O)OCC(C)C)C1CCCCC1)C(=O)C(=O)NCC(=O)NC(C(=O)OC(C)(C)C)c1ccccc1 (stereo partly drawn) [Example 158] (Isobutyloxycarbonyl-[ξChg][ξPro(4R-SBzl)][X2]G[ξPhg]-OtBu),> 1000 nM
15,CCCC(NC(=O)C1C[C@@H](SCc2ccccc2)CN1C(=O)C(NC(=O)OCC(C)C)C1CCCCC1)C(=O)C(=O)NCC(=O)NC(C(=O)NC)c1ccccc1 (stereo partly drawn) [Example 159] (Isobutyloxycarbonyl-[ξChg][ξPro(4R-SBzl)][X2]G[ξPhg]-NHMe),101 to 1000 nM
16,CCCC(NC(=O)C1C[C@@H](SCc2ccccc2)CN1C(=O)C(NC(=O)OCC(C)C)C1CCCCC1)C(=O)C(=O)NCC(=O)NC(C(=O)N(C)C)c1ccccc1 (stereo partly drawn) [Example 160] (Isobutyloxycarbonyl-[ξChg][ξPro(4R-SBzl)][X2]G[ξPhg]-NMe2),1 to 100 nM
17,CCCC(NC(=O)C1C[C@@H](SCc2ccccc2)CN1C(=O)C(NC(=O)OCC(C)C)C1CCCCC1)C(=O)C(=O)NCC(=O)NC(C(=O)O)c1ccccc1 (stereo partly drawn) [Example 161] (Isobutyloxycarbonyl-[ξChg][ξPro(4R-SBzl)][X2]G[ξPhg]-OH),1 to 100 nM
18,CCCC(NC(=O)C1C[C@@H](SC(C)(C)C)CN1C(=O)C(NC(=O)OCC(C)C)C1CCCCC1)C(=O)C(=O)NCC(=O)NC(C(=O)O)c1ccccc1 (some centres unmarked) [Example 162],1 to 100 nM

row,SMILES,Ki
1,C=CCC1CCN(C(=O)[C@@H](NC(=O)OCC(C)C)C2CCCCC2)C1C(=O)NC(CCC)C(=O)C(=O)NCC(=O)NC(C(=O)OC(C)(C)C)c1ccccc1 (some centres unmarked) [Example 163],> 1000 nM
2,C=CCC1CCN(C(=O)[C@@H](NC(=O)OCC(C)C)C2CCCCC2)C1C(=O)NC(CCC)C(=O)C(=O)NCC(=O)NC(C(=O)O)c1ccccc1 (some centres unmarked) [Example 164],1 to 100 nM
3,"CCCC(NC(=O)[C@@H]1CC2(CN1C(=O)[C@@H](NC(=O)c1cc(Cl)c(Cl)cc1C(=O)O)C1CCCCC1)SCCCS2)C(=O)C(=O)NCC(=O)NC(C(=O)N(C)C)c1ccccc1 (some centres unmarked) [Example 174] ({Benzoyl(2-COOH-4,5-Cl2)}-[Chg][Pro(4,4-S(CH2)3S)][X2]G[ξPhg]-NMe2)",1 to 100 nM
4,"CCCC(NC(=O)[C@@H]1CC2(CN1C(=O)[C@@H](NC(=O)c1cc(Cl)c(Cl)cc1C(=O)O)C1CCCCC1)SCCCS2)C(=O)C(=O)NCC(=O)NC(C(=O)O)c1ccccc1 (some centres unmarked) [Example 176] ({Benzoyl(2-COOH-4,5-Cl2)}-[Chg][Pro(4,4-S(CH2)3S)][X2]G[ξPhg]-OH)",101 to 1000 nM
5,"CC(C)COC(=O)N[C@H](C(=O)N1CC2(C[C@H]1C(=O)NC(CC1CC1)C(=O)C(=O)NCC(=O)NC(C(=O)OC(C)(C)C)c1ccccc1)SCCCS2)C(C)(C)C (some centres unmarked) [Example 178] (Isobutyloxycarbonyl-[Tle][Pro(4,4-S(CH2)3S)][X8]G[ξPhg]-OtBu)",1 to 100 nM
6,"CC(C)COC(=O)N[C@H](C(=O)N1CC2(C[C@H]1C(=O)NC(CC1CC1)C(=O)C(=O)NCC(=O)NC(C(=O)O)c1ccccc1)SCCCS2)C(C)(C)C (some centres unmarked) [Example 179] (Isobutyloxycarbonyl-[Tle][Pro(4,4-S(CH2)3S)][X8]G[ξPhg]-OH)",1 to 100 nM
7,"CCCCC(NC(=O)[C@@H]1CC2(CN1C(=O)[C@@H](NC(=O)OCC(C)C)C(C)(C)C)SCCCS2)C(=O)C(=O)NCC(=O)NC(C(=O)OC(C)(C)C)c1ccccc1 (some centres unmarked) [Example 182] (Isobutyloxycarbonyl-[Tle][Pro(4,4-S(CH2)3S)][X4]G[ξPhg]-OtBu)",101 to 1000 nM
8,"CCCCC(NC(=O)[C@@H]1CC2(CN1C(=O)[C@@H](NC(=O)OCC(C)C)C(C)(C)C)SCCCS2)C(=O)C(=O)NCC(=O)NC(C(=O)O)c1ccccc1 (some centres unmarked) [Example 183] (Isobutyloxycarbonyl-[Tle][Pro(4,4-S(CH2)3S)][X4]G[ξPhg]-OH)",1 to 100 nM
9,"CCCCC(NC(=O)[C@@H]1CC2(CN1C(=O)[C@@H](NC(=O)OCC(C)C)C(C)(C)C)SCCCS2)C(=O)C(=O)NCC(=O)NC(C(=O)N(C)C)c1ccccc1 (some centres unmarked) [Example 184] (Isobutyloxycarbonyl-[Tle][Pro(4,4-S(CH2)3S)][X4]G[ξPhg]-NMe2)",1 to 100 nM
10,"CCCC(NC(=O)[C@@H]1CC2(CN1C(=O)[C@@H](NC(=O)OCC(C)(C)C)C(C)(C)C)SCCCS2)C(=O)C(=O)NCC(=O)NC(C(=O)N(C)C)c1ccccc1 (some centres unmarked) [Example 185] (Neopentyloxycarbonyl-[Tle][Pro(4,4-S(CH2)3S)][X2]G[ξPhg]-NMe2)",1 to 100 nM
11,"CCCC(NC(=O)[C@@H]1CC2(CN1C(=O)[C@@H](NC(=O)[C@@H](C)c1ccccc1)C(C)(C)C)SCCCS2)C(=O)C(=O)NCC(=O)NC(C(=O)N(C)C)c1ccccc1 (some centres unmarked) [Example 187] (X9-[Tle][Pro(4,4-S(CH2)3S)][X2]G[ξPhg]-NMe2)",1 to 100 nM
12,"CCCC(NC(=O)[C@@H]1CC2(CN1C(=O)[C@@H](NC(=O)C(C)(C)c1ccccc1)C(C)(C)C)SCCCS2)C(=O)C(=O)NCC(=O)NC(C(=O)N(C)C)c1ccccc1 (some centres unmarked) [Example 189] (X10-[Tle][Pro(4,4-S(CH2)3S)][X2]G[ξPhg]-NMe2)",101 to 1000 nM
13,"CCCC(NC(=O)[C@@H]1CC2(CN1C(=O)[C@@H](NC(=O)OCC1CC1)C(C)(C)C)SCCCS2)C(=O)C(=O)NCC(=O)NC(C(=O)N(C)C)c1ccccc1 (some centres unmarked) [Example 199] (X7-[Tle][Pro(4,4-S(CH2)3S)][X2]G[ξPhg]-NMe2)",1 to 100 nM
14,"CCCC(NC(=O)[C@@H]1CC(F)(F)CN1C(=O)[C@@H](NC(=O)OCC(C)C)C1CCCCC1)C(=O)C(=O)NCC(=O)N[C@H](C(=O)OC(C)(C)C)c1ccccc1 (some centres unmarked) [Example 201] (Isobutyloxycarbonyl-[Chg][Pro(4,4-F2)][X2]G[Phg]-OtBu)",101 to 1000 nM
15,"CCCC(NC(=O)[C@@H]1CC(F)(F)CN1C(=O)[C@@H](NC(=O)OCC(C)C)C1CCCCC1)C(=O)C(=O)NCC(=O)N[C@H](C(=O)O)c1ccccc1 (some centres unmarked) [Example 202] (Isobutyloxycarbonyl-[Chg][Pro(4,4-F2)][X2]G[Phg]-OH)",1 to 100 nM
16,"CCCC(NC(=O)[C@@H]1CC(F)(F)CN1C(=O)[C@@H](NC(=O)OCC(C)C)C1CCCCC1)C(=O)C(=O)NCC(=O)N[C@H](C(=O)N(C)C)c1ccccc1 (some centres unmarked) [Example 203] (Isobutyloxycarbonyl-[Chg][Pro(4,4-F2)][X2]G[Phg]-NMe2)",101 to 1000 nM
17,CCCC(NC(=O)[C@@H]1C[C@@H](c2ccccc2)CN1C(=O)[C@@H](NC(=O)OCC(C)C)C1CCCCC1)C(=O)C(=O)NCC(=O)N[C@H](C(=O)N(C)C)c1ccccc1 (stereo partly drawn) [Example 204] (Isobutyloxycarbonyl-[Chg][Pro(trans-4-Ph)][X2]G[Phg]-NMe2),101 to 1000 nM
